# Source: the RNAGym collection of RNA variant scans (doi:10.7554/elife.90254)
# The source gives no read counts; variants with many changes may rest on few reads.
# B1: LINE1-full (parent)
# chain: UACGUAGGUGGUUUUCCCCUGAUAGUGCUAAGGGGGCCUGGAAGUUUGGACUGGGCAGAGCUCAACACAGCGUGGCAAAGUGGCUGUGGCUAGACUGCCUCUCUGGAUUCCUCGUCACUCAGCAGGGCAUCUCUGAGAGAAAUGCC
# Variants of: B1
# Assay: self-cleavage, relative activity (ratio to wild type); higher = more cleavage; in vitro, sequencing; the parent is a self-cleaving ribozyme
row,Variant,self-cleavage
1,U14C A117U U130C,0.95
2,U14A U39A A43G U47C,0.97
3,U14C A50U G105A A117G A124U G125A G135A,1.31
4,U14A A64U A121G,0.23
5,U14C A30G A69G A129C,0
6,U14C A79G A121G,1.64
7,U14C A30U U87C U96C,0
8,U14A G32A U45C U102C G114C A124G,0.94
9,U14C A22U U46C U112C A117G,2.12
10,U14C A42G A69G C111U,0.25
11,U14C A94G U109A,0.14
12,U14C A30C A59U,0.44
13,U14C A30G A77G U100C,1.53
14,U14C C76U A94U,0.4
15,U14A A77G A141G,1.64
16,U14C A107G G122A G139A,1.56
17,U14A C19U U39C,0.43
18,U14C A69G C146U,0.28
19,U14C A78U U143C,0.61
20,U14C A43U U47C,1.28
21,U14A A77U U112A,0.71
22,U14A C71A G97A A136G,0.07
23,U14C A59G U96A U104A,0.13
24,U14C A22G U52A A57G U115C A141G,0

row,Variant,self-cleavage
1,U14C C18A C63U,0.69
2,U14A U47A A65G,0.05
3,U14C A65G A124U U130A C131A,0.19
4,U14C A77U C103A,1.61
5,U14C A94G U132C,0.31
6,U14A G21A U134C,0.12
7,U14A U96C U134A,0
8,U14C A121U A124U,1.14
9,U14C A42G A92G A117U U132C,0.28
10,U14C A43G A129C,0.84
11,U14C A124U U134A,0.37
12,U14A U15C A77U C113G A142G,1.01
13,U14C A94G A117U A141G,0.44
14,U14A G58U G139A,0.06
15,U14C A78G U87A,0.06
16,U14C A43G U134G,1.65
17,U14C C19U C63U U104C,0.79
18,U14C A67U U96C U132C,0
19,U14C A30U U102C,1.34
20,U14C A24G C146A,1.34
21,U14A A138G A142C,1.29
22,U14A U46C A64G,1.31
23,U14A G34U A142U,1.2
24,U14A U15A C61U A78C A107G,0.12

row,Variant,self-cleavage
1,U14C A42G G105A,1.68
2,U14C A57G G97A U119C A121C,0.13
3,U14C C18A U102C A142G C145U,0.66
4,U14C C84A A121G A141G,0
5,U14A U73C C95U A121G,0.14
6,U14C A57U U73A,0.08
7,U14C A78G A92G,0.29
8,U14A A42U U134A,0.41
9,U14C A24C A140G,1.31
10,U14C A22U U104A U108C A138G,1.69
11,U14A U45C U46C U85A U134C A136G,0
12,U14C A42U A65G U115C,0
13,U14A U96A C118U,0.05
14,U14C A59U U102C,1.03
15,U14C C38U U46C U119A A136G,1.18
16,U14A U39C U52C C63U,0.01
17,U14C C63A U85C,0
18,U14C A43G A65G,0.26
19,U14C A22G U96C,0
20,U14A U20C G34U U39C U115C,0
21,U14C A50G A65U A79G U81A,0
22,U14C A24G U96C U143G,0
23,U14C A22G U47A,1.33
24,U14C A43G G97A A124C,0.09

row,Variant,self-cleavage
1,U14C A64G A77U U134C A142G,0.32
2,U14C A31G U39A A57U A77U U130C,0.06
3,U14C A57G A107G U143C,0.38
4,U14C A24G U52C U102C,1.84
5,U14C A59G U134C,0
6,U14C A30G U85A A136C,0.09
7,U14C C38G U45A A64G,0.39
8,U14A A78G A79G U115A,0.13
9,U14C A57U U104A,0.04
10,U14C A30G U85A,0.27
11,U14C A117G A136U,0.88
12,U14C A64U A69G U143C,0.28
13,U14C A65G G137U A141G,0.1
14,U14A U73A U109G,0.31
15,U14C A107G U115A U119C A142G,0
16,U14C A78G A136G,1.17
17,U14A U62C U112G,0
18,U14C A50U A64G A77G,0.27
19,U14C A22U G55A,0.2
20,U14C A42U A59G,0.17
21,U14C A65G G72A U73A U109C,0.06
22,U14C A24G A31G A92G,1.02
23,U14C A31U U81C A140G,0.86
24,U14A A69G A140C,0

row,Variant,self-cleavage
1,U14C A31U A79G,1.81
2,U14C C18A C71U,0.86
3,U14A A57G U85C,0.26
4,U14C A30G G126U,0.81
5,U14C A92U U109A A140G,0.51
6,U14C C71U G106U,0.19
7,U14C A79G A129G,1.9
8,U14C A43G U81G,0.63
9,U14C A50G A78G,0.75
10,U14C C17A A22G C61U U132C,0.2
11,U14C A69U A77G G93A,0
12,U14C A50G U100C,1.31
13,U14C A50G G83A,0.45
14,U14C A78G A138G,0.94
15,U14C C37U U46C G58A,0.08
16,U14A U46C A50G,0.59
17,U14A U15C G48A,0.18
18,U14A A43G C90A U112C A136G,0.07
19,U14C A77G U96A A140G,0.14
20,U14A A50G A77G A92G,1.08
21,U14C C37U U87C,0.17
22,U14C A65G U130C,0.15
23,U14C A77U A138G A140G,1.29
24,U14C A24U U46C U104A U143C,0.45

row,Variant,self-cleavage
1,U14C A77G U85G A140G A142C,0
2,U14C A67C U132G A138G,1.23
3,U14A U62C A78U A141G,0.07
4,U14C A30U U39C A136G,0.92
5,U14A A65U A117G,0.37
6,U14A U15C U52A U143C,0.86
7,U14C A64U A67G A79U,0.21
8,U14A A59U U130A,0.99
9,U14C A57G U109C A124U A142G,0.21
10,U14A C61A A142G,0.03
11,U14C A64U U91C,0.12
12,U14C A57G A67C A79G A141G,0
13,U14C A67U A69G C99U U112C U115C,0
14,U14C A22G U100C,0.97
15,U14A A59G A64G A129C,0
16,U14C A94G U130C,0
17,U14C A65G A129G,0.17
18,U14A U102C A141G,0.89
19,U14A A78G U143A,0.99
20,U14C A64G A121G,0.35
21,U14C A117G A142G,2.24
22,U14A A69G G127A A140U,0.46
23,U14C C19A G126A A140G,0.96
24,U14C A67G A138G,0.78

row,Variant,self-cleavage
1,U14C A43G U109A A141G,1.18
2,U14C A42G U87G U96A,0.11
3,U14A A50G A65G,0.08
4,U14C A78G U104A U109C,0.46
5,U14A U91C U102C,0.71
6,U14C C19U A22G U26A U73C,0.66
7,U14C A69G U134A U143C,0
8,U14A U46C G48U A50G C51A U52C G53U C76U U102C,2.08
9,U14A A57G A69U,0.04
10,U14C A64U A69G U109C A117U,0.08
11,U14C A42G A78G,2.66
12,U14C C56A A57G U91A C113U A121C,0.07
13,U14C C66U U96C A117C,0.07
14,U14C A64U A67G U119C,0.15
15,U14C A79G C95U,0.2
16,U14A G36C U96C,0.18
17,U14C A57G A107U,0.34
18,U14C A22U A117U,0.28
19,U14C A22G G54A U85C,0.13
20,U14A U109C A138G,0.68
21,U14C A50G C56U,0.18
22,U14C A79C A121U,1.69
23,U14C A31U A57U U85A A129G,0.19
